Assay results as given in paper PMC4336329 (PLoS ONE, 2015).
Screen size: about 310,000 compounds; about 14,000 (4.5%) showed an effect of 50% or more. The effect is printed as a negative number. The list shows a part of the results.

These molecules were tested against human ether-à-go-go-related gene (hERG) potassium channel (human, UniProt Q12809) (assay: primary screen, population patch clamp on CHO cells stably expressing hERG).
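Further: peak tail current of the secondary pulse compared with the same well before compound.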

Sequence of human ether-à-go-go-related gene (hERG) potassium channel (Q12809 whole entry, looked up): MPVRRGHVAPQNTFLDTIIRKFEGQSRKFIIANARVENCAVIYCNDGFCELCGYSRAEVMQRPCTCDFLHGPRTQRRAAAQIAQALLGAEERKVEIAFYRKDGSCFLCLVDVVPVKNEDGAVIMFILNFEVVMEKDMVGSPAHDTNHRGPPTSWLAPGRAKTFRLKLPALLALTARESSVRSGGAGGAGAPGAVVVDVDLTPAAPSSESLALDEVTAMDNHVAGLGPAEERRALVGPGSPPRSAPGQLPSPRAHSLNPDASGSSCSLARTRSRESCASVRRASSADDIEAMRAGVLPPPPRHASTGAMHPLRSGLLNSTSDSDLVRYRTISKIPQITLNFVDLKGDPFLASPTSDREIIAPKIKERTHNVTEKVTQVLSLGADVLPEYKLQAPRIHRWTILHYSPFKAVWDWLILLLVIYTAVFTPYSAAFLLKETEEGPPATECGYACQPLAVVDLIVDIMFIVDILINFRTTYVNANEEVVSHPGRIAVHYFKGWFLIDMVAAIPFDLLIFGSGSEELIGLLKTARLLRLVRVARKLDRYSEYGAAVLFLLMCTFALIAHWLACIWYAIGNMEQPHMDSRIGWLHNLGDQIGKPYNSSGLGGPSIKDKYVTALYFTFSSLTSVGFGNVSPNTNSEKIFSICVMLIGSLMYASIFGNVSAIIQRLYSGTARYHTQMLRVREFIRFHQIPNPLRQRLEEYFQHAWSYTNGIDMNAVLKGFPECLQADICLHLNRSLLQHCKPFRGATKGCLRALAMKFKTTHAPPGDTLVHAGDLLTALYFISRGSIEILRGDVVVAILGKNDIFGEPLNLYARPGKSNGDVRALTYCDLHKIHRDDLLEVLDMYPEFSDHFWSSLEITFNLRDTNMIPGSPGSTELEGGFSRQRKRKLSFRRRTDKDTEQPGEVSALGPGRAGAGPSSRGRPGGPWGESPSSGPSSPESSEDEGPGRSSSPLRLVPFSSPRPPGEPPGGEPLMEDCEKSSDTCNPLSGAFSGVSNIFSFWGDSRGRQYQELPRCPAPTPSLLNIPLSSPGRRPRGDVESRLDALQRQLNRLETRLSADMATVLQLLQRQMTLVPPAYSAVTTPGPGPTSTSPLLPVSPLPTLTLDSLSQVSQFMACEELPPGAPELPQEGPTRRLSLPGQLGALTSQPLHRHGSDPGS

SMILES	hERG current change (%, negative = inhibition) at 10uM [%]
N#CC(C#N)=C1C=CC=CN1/C(=C\c1ccccc1Cl)C(=O)c1ccccc1	8.73
c1ccc2[nH]c(C3CC3)nc2c1	16.4
Cc1nnc2sc(-c3ccncc3)nn12	6.63
O=C(NCc1cccs1)c1ccncc1	0.723
O=C(O)C1CCCN(S(=O)(=O)c2ccc3c(c2)OCCO3)C1 (stereo not shown)	39.7
CC1Sc2ccc(S(=O)(=O)N3CCC(C(=O)NCC(C)c4ccccc4)CC3)cc2NC1=O (stereo not shown)	-10.5
Cc1cc(C)c(S(=O)(=O)N2CCCC(C(=O)NCc3ccncc3)C2)c(C)c1 (stereo not shown)	-18.9
COc1ccccc1C1CC(c2ccccc2)=NN1C(=O)c1ccccc1 (stereo not shown)	11.9
O=C(Nc1ccc([N+](=O)[O-])cn1)c1cc(-c2cccc(Cl)c2)nc2ccccc12	-8.44
CC[C@@H](CO)NC(=O)[C@@H]1C=C2c3cccc4c3c(cn4C)C[C@H]2N(C)C1.O=C([O-])/C=C\C(=O)[O-]	2.55
COc1ccc(-c2nc(CSCC(=O)N3CCc4ccccc43)c(C)o2)cc1OC	-3.67
COC(=O)c1ccc(C(=O)OC)c(NC(=O)COC(=O)C2CCCCC2)c1	2.27
O=C(Nc1ccccc1Oc1ccccc1)c1cc([N+](=O)[O-])ccc1Cl	-17.7
N#Cc1cc2ccccc2n2nnnc12	-2.06
COCCn1c(SC(C)C(=O)NC2CCCCC2C)nc2ccccc2c1=O (stereo not shown)	-2.99
CCCS/C(N)=N/N=C/c1cc(C)ccc1O	9.36
Cn1nnnc1Sc1ncnc2scc(-c3cccs3)c12	-9.55
CCN(CC)C(=O)CSc1nc2ncccc2[nH]1	-3.36
COC(=O)C1=C(C)N(C)C(=O)NC1c1cc(Cl)c(O)c(OC)c1 (stereo not shown)	-4.18
O=C(OCCCN1CCCC1)C1(c2ccccc2)CCCC1	-16.8
COc1ccc(C(=O)NNC(=O)c2cccc(F)c2)cc1	1.2
O=S(=O)(NCc1cccnc1)c1ccc(Cl)nc1	12.6
CC(C)(C)c1csc(NC(=O)Cc2ccc(S(=O)(=O)N3CCOCC3)s2)n1	-33.6

SMILES	hERG current change (%, negative = inhibition) at 10uM [%]
CC(=O)c1ccc(NC(=S)NCc2ccco2)cc1	20.2
NC(=O)c1ccc(OCC(F)(F)C(F)(F)C(F)(F)C(F)(F)C(F)(F)C(F)F)cc1	3.8
CC(=O)Nc1ccc(OCC(=O)NCc2ccccc2)cc1	19
Cc1nc(N2CCOCC2)[nH]c(=O)c1C(O)C(Cl)(Cl)Cl (stereo not shown)	8.9
CCOc1cc(N2CCOCC2)c(OCC)cc1NC(=O)CN1CCC(Cc2ccccc2)CC1	-3.67
Cc1ccc(-c2csc(N/N=C/c3ccco3)n2)cc1	-5.35
O=C1C2C3CCC(C3)C2C(=O)N1c1ccc(OS(=O)(=O)c2ccccc2)cc1 (stereo not shown)	3.05
CCN(CC(=O)Nc1cc(Cl)ccc1C)C(=O)COc1cccc2c1OC(C)(C)C2	-4.2
COCCN(C(C)=O)c1nnc(-c2cnccn2)s1	6.11
COc1ccc2c(c1OC)C(=O)OC2C1c2c(cc3c(c2OC)OCO3)CCN1C.Cl (stereo not shown)	-1.88
CC/C(O)=C1\C(=O)CC(c2ccccc2)CC1=NCCC(=O)O (stereo not shown)	15.6
Cc1cc(=O)n2nc(N3CCC(C(=O)NCC(C)c4ccccc4)CC3)sc2n1 (stereo not shown)	-13
O=C1CC(c2ccco2)Sc2nc3ccccc3n21 (stereo not shown)	6.09
COc1cc(C(=O)NCc2ccc(-c3nc4ccccc4s3)cc2)cc(OC)c1OC	0.994
CCOC(=O)c1cc[n+](CC(=O)c2ccc(F)cc2)cc1.[Br-]	-15.8
COC(=O)c1ccc(NC(=O)COc2cccc(-n3cnnn3)c2)cc1	6.77
Cc1cccc(C)c1OCCCCN1CCCCC1.O=C(O)C(=O)O	-11.8
O=C(CC(=O)N/N=C/c1cccs1)NCc1ccccc1	15.3
O=S(=O)(Nc1nc2ccccc2nc1Cl)c1ccccc1C(F)(F)F	-5.32
CCC(=O)NCCCCCCNC(=O)CC	0.405
C=CCSc1nnc2c(n1)OC(c1cccnc1)Nc1ccccc1-2 (stereo not shown)	-22.1
Nc1nc(SCc2ccccc2Cl)ns1	-22
CC1CCN(c2nnc(-c3cccs3)c3ccccc23)CC1	-41.6

SMILES	hERG current change (%, negative = inhibition) at 10uM [%]
Nc1ccc(N2CCOCC2)c2nonc12	56.7
CCOc1ccc(C(=O)NC2CCN(S(=O)(=O)c3ccccc3)CC2)cc1	-4.42
Cn1c(SCC(=O)NC2CCCC2)nnc1-c1ccco1	17.3
COC(=O)CC1(CC(=O)OC)C(=O)NC(=O)NC1=O	7.37
CCCCNC(=O)c1ccc(SCC(=O)N(CC)CC)c([N+](=O)[O-])c1	5.66
O=C(c1cccc2ccccc12)N1CCN(c2ccc([N+](=O)[O-])c(N3CCOCC3)c2)CC1	-13.7
CCC(=O)N1CCN(c2ccccc2NC(=O)c2ccc(-c3cccc([N+](=O)[O-])c3)o2)CC1	-34.1
Fc1ccc(CCNCc2ccc(Br)cc2)cc1	-53.8
O=C(N/N=C/c1ccccn1)c1cccc(NC(=O)c2ccc(Cl)cc2)c1	-11.7
CS(=O)(=O)N1CCN(c2ccccc2NC(=O)c2cc(Br)ccc2Cl)CC1	-30.3
COc1ccc(-n2cnnc2SCC(=O)Nc2cc(C(C)(C)C)nn2-c2ccccc2)cc1	-1.25
COc1ccc(C[C@@H]2c3cc(O)c(OC)cc3CCN2C)cc1O.[O-][Cl+3]([O-])([O-])O	2.2
CCOC(=O)c1ccc(Oc2ccc(C(F)(F)F)cn2)cc1	2.06
O=C(Nc1nnc(Cc2ccccc2)s1)Nc1ccccc1F	11.1
COC(=O)c1ccc(COc2nc(C)cc(C)c2C#N)o1	-24.9
Cc1cnc(C(=O)OCC(=O)c2ccc(-c3ccccc3)cc2)cn1	11.1
CCOC(=O)C(C)N(c1ccccc1Cl)S(C)(=O)=O (stereo not shown)	-13.4
Cc1ccc(CCN2CC(C(=O)N3CCN(c4ccc(F)cc4)CC3)CC2=O)cc1 (stereo not shown)	-57.4
Cc1ccc(NC(=S)NCc2cccnc2)cc1	-16.9
CCOP(=O)(Cc1ccccc1)OCC	20.7
COc1ccc2nc3c(c(-c4ccccc4)c2c1)CCC3	-5.34
COc1ccc(-c2nnc3sc(CCN4C(=O)c5ccccc5C4=O)nn23)cc1	-10.3
Cc1ccc(S(=O)(=O)N2CCN(C(=O)C(C)Cn3cncn3)CC2)cc1 (stereo not shown)	4.36

SMILES	hERG current change (%, negative = inhibition) at 10uM [%]
COc1cccc(CNC(=O)c2ccccc2N)c1	-10.8
CC1CCN(C(=O)COC(=O)COc2ccccc2C#N)CC1	7.56
COc1cccc(NC(=O)c2ccc3c(c2)N(C)CCS3)c1	-6.67
O=C(COC(=O)c1cc(Br)ccc1Cl)NC1CCCC1	4.64
CC(C)NC(=O)COc1ccc(OCc2ccccc2)cc1	4.16
CN(C)c1ccc(/C=N/NC(=O)C(=O)N2CCCCCC2)cc1	18
Cc1cc(NC(=O)Nc2cccc([N+](=O)[O-])c2)no1	10.6
CN(C[C@H](Cc1ccccc1)N(C[C@H](Cc1ccccc1)N(CC1(c2ccccc2)CC1)N=O)N=O)N=O.[Na+]	12.8
O=C(O)C(=O)O.O=C(c1cccc(F)c1)N1CCN(Cc2cccc(Br)c2)CC1	-48.6
Cc1ccc(-n2c(CNCc3ccc(F)cc3)nc3ccccc3c2=O)cc1	-25.9
COCCOC(=O)c1c(C)oc2cc(Br)c(OCC(N)=O)cc12	10.6
CCOc1ccc2nc(NC(=O)CSc3nc4c(c(=O)n(C)c(=O)n4C)n3C(C)C)sc2c1	-9.49
Cc1ccc(-c2csc3ncn(CC(=O)N4CCOCC4)c(=O)c23)cc1C	-5.43
COC(=O)c1ccc(NC(=O)CN2CCOCC2)cc1	11.7
Cc1cc(C)c(S(=O)(=O)c2ccccc2F)c(=O)[nH]1	30.6
CSc1ncccc1C(=O)OCc1ccccc1Cl	17
COc1ccc(CNC(=O)c2c(-c3c(F)cccc3Cl)noc2C)cc1	-0.124
CCC(=O)N1CCc2cc(Br)cc(S(=O)(=O)CCC(=O)NCCc3ccccc3)c21	3.68
Cc1nn(-c2ccccc2)c(Cl)c1/C=N/NC(=O)CNC(=O)c1ccccc1Cl	-29.2
COc1cc(C2=NOC(C(=O)Nc3ccc(C)cc3)C2)cc(OC)c1OC (stereo not shown)	-4.96
COCCNc1oc(-c2ccc(F)cc2)nc1C#N	4.03
COC(=O)c1cc(CN2CCN(c3ccccc3)CC2)ccc1O.Cl	-13.1
